Results from the supplement of paper PMC7826260.
The list shows a part of the results. Viral Rep nickase domains cut single-stranded DNA in vitro for 1 h at 37 °C with 3 µM enzyme; only the middle of the 90-letter strands is printed. The score is log2 (uncut reads / reads without enzyme); strong cutting gives strongly negative numbers. There is no active / inactive call. Reads are scaled to the total; values above 0 arise when much of the pool is cut.

Columns and labels:
Test in all cases: uncleaved DNA left, log2 of reads against the no-enzyme library (log2 ratio); higher = less cleavage (more negative = more Rep cleavage of the k-mer); sequences stand for … in CTCGTCCG…ACCGGAGA
[1] = tested on: T1, Rep nickase domain of Muscovy duck circovirus
T1 sequence (residues 1-111 of Rep, tag left off): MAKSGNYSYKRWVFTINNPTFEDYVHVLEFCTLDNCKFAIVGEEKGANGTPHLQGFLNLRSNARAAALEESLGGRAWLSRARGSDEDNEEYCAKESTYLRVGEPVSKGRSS
Experimental: (§1)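 A pool of 90-nt single-stranded DNAs with seven random bases just before the constant AC of the nick site (name = the seven bases) was cut by 3 µM recombinant His6-SUMO-tagged Rep nickase domain (300 nM DNA, 50 mM HEPES pH 8.0, 50 mM NaCl, 1 mM MnCl2, 1 h, 37 °C, three replicates). Uncut DNA was amplified and sequenced.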

[2] = tested on: T2, Rep nickase domain of banana bunchy top virus
T2 sequence (residues 1-94 of Rep, tag left off): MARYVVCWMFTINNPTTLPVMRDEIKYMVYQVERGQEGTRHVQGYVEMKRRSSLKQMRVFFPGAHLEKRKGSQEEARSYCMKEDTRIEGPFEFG
Experimental: as §1

[3] = tested on: T3, Rep nickase domain of cabbage leaf curl virus
T3 sequence (residues 1-116 of Rep, tag left off): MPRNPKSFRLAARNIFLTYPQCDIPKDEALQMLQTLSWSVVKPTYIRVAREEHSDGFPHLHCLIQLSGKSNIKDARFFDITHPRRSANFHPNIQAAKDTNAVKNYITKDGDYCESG
Experimental: as §1

[4] = tested on: T4, Rep nickase domain of chickpea chlorotic dwarf virus
T4 sequence (residues 1-124 of Rep, tag left off): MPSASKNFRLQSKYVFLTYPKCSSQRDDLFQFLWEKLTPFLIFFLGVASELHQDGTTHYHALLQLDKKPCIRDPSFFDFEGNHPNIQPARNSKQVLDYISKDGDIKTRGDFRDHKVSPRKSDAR
Experimental: as §1

[5] = tested on: T5, Rep nickase domain of faba bean necrotic yellows virus
T5 sequence (residues 1-98 of Rep, tag left off): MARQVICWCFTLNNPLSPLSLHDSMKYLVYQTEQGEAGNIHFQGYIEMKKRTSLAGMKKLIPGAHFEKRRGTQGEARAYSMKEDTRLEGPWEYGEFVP
Experimental: as §1

[6] = tested on: T6, Rep nickase domain of maize striate mosaic virus
T6 sequence (residues 1-117 of Rep, tag left off): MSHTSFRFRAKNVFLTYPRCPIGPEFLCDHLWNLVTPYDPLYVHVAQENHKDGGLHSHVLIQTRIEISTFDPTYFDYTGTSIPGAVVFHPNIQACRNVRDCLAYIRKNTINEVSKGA
Experimental: as §1

[7] = tested on: T7, Rep nickase domain of porcine circovirus 2
T7 sequence (residues 2-116 of Rep, tag left off): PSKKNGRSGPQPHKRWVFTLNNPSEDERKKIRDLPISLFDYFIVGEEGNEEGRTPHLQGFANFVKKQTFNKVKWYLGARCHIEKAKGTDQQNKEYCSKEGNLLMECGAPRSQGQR
Experimental: as §1

[8] = tested on: T8, Rep nickase domain of tomato golden mosaic virus
T8 sequence (residues 1-124 of Rep, tag left off): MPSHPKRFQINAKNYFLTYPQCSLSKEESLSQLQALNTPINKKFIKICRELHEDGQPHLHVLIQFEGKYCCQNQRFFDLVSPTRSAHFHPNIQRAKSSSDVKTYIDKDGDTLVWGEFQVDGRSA
Experimental: as §1

[9] = tested on: T9, Rep nickase domain of tomato yellow leaf curl virus
T9 sequence (residues 1-136 of Rep, tag left off): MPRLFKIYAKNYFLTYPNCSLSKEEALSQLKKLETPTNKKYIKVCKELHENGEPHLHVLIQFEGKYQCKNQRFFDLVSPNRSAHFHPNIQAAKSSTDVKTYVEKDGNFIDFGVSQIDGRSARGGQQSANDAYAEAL
Experimental: as §1

[10] = tested on: T10, Rep nickase domain of wheat dwarf virus
T10 sequence (residues 1-137 of Rep, tag left off): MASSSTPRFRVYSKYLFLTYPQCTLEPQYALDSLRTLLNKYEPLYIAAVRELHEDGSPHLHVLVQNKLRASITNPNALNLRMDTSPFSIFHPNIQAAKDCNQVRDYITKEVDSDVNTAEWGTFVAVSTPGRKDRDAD
Experimental: as §1

Sequence | uncleaved DNA left (log2) [1] | uncleaved DNA left (log2) [2] | uncleaved DNA left (log2) [3] | uncleaved DNA left (log2) [4] | uncleaved DNA left (log2) [5] | uncleaved DNA left (log2) [6] | uncleaved DNA left (log2) [7] | uncleaved DNA left (log2) [8] | uncleaved DNA left (log2) [9] | uncleaved DNA left (log2) [10]
GAGGGTA | 0.0396 | -0.0259 | 0.277 | 0.582 | -0.192 | 1.63 | -0.0479 | 0.096 | -0.0959 | -0.0517
TCATGGT | -0.299 | -0.189 | -0.631 | -1.35 | -0.162 | 0.692 | -0.566 | -0.147 | -0.172 | -0.179
CTGCGCC | 0.0588 | -0.0571 | -0.505 | -0.461 | 0.104 | -0.828 | 0.141 | -0.203 | 0.0168 | -0.0824
TTCCCTC | -0.0123 | 0.0622 | 0.181 | -0.562 | -0.0278 | -0.216 | -0.506 | -0.0405 | -0.0495 | 0.144
CTTACCT | -0.106 | -0.101 | -0.371 | -2.63 | -0.0652 | -0.704 | -1.01 | -0.0701 | 0.0637 | -0.0134
TCCGCAG | -0.124 | -0.0379 | -0.432 | -0.59 | -0.102 | -0.737 | -0.0296 | -0.0636 | -0.0962 | -0.236
GAATAGT | -2.74 | -0.371 | -2.76 | -2.24 | -0.0618 | -2.27 | -3.02 | -2.77 | -0.0109 | -2.73
CGCGCAT | -0.111 | -0.0848 | -0.248 | -0.048 | -0.101 | -0.174 | -0.0666 | -0.289 | -0.214 | -0.0422
TCCGTTG | 0.117 | -0.0691 | -0.223 | -0.467 | -0.0176 | -0.389 | 0.212 | -0.111 | 0.00552 | 0.0776
GCACTGC | 0.0678 | -0.102 | -0.213 | 0.0443 | -0.0806 | -0.476 | -0.0129 | 0.0779 | -0.0393 | 0.0512
CCCCCGG | -0.0808 | -0.0316 | 0.376 | 1.21 | -0.00228 | 1.46 | 0.0759 | 0.0722 | -0.134 | 0.0299
TGCCTTT | -0.0966 | -0.164 | -0.0365 | -1.71 | -0.0426 | -0.297 | -0.442 | -0.348 | -0.158 | -0.0935
CTTCAGA | 0.19 | -0.0358 | -0.111 | -0.356 | 0.0784 | -0.968 | 0.0789 | 0.139 | -0.0743 | 0.0302
TCAGGAC | 0.0869 | 0.0923 | 0.422 | 1.34 | 0.138 | 1.29 | 0.299 | 0.251 | 0.181 | 0.134
CTAGCGT | 0.0763 | -0.0484 | -0.79 | -0.831 | -0.000843 | -0.951 | 0.0626 | -0.000184 | 0.0593 | 0.0283
CATCATT | -0.27 | -0.514 | -0.14 | -2.47 | -0.042 | -0.471 | -2.5 | 0.0627 | 0.168 | -0.136
GATAATT | -0.034 | -0.996 | 0.426 | -1.76 | -0.0546 | 1.23 | -2.43 | 0.0368 | 0.236 | 0.213
CCAAATC | -0.00797 | 0.00364 | 0.00491 | -0.0242 | -0.0504 | -0.614 | 0.0928 | 0.0453 | 0.0387 | -0.00729
GAAACTA | 0.027 | 0.0617 | 0.221 | -0.669 | -0.114 | 0.912 | 0.0587 | 0.0462 | 0.0621 | 0.131
CTCAAGA | -0.0707 | -0.112 | -0.0828 | -0.248 | -0.138 | -0.952 | 0.0905 | 0.0424 | -0.00493 | 0.00179
TATATAG | 0.0595 | 0.0364 | -0.638 | -0.615 | 0.0883 | -1.3 | 0.17 | 0.0254 | 0.0633 | -0.0794
ACGAATC | -0.079 | 0.00666 | -0.0194 | -0.0348 | 0.106 | -0.651 | 0.141 | 0.0404 | -0.0873 | -0.0902
GCATACG | 0.0372 | -0.0157 | -0.62 | -0.161 | 0.141 | -0.612 | 0.171 | 0.0502 | 0.0745 | -0.063
AAACTAC | 0.0513 | 0.0188 | -0.343 | -2.74 | 0.0903 | -0.621 | 0.0649 | 0.137 | -0.00182 | 0.0535
AGAGGCC | -0.0734 | -0.088 | 0.114 | 0.443 | -0.0666 | 0.132 | -0.101 | -0.0627 | -0.114 | -0.17
CGCGCAC | -0.0581 | -0.0269 | -0.103 | -0.0994 | -0.154 | -0.222 | -0.0557 | -0.0847 | -0.144 | -0.062
AGACACG | 0.0321 | 0.0507 | -0.0226 | 0.373 | -0.0586 | -0.513 | 0.198 | 0.0648 | -0.0685 | 0.0866
CGGTATA | 0.0221 | -0.0328 | 0.0789 | -0.357 | -0.00547 | 0.355 | -0.0518 | -0.0166 | 0.0999 | 0.101
AGGGGTG | 0.02 | -0.116 | -0.0917 | 0.414 | -0.147 | 0.18 | 0.0744 | 0.0662 | -0.174 | -0.0574
GTCGACG | 0.0116 | 0.0471 | 0.025 | 0.341 | -0.00232 | 0.801 | 0.0426 | 0.192 | 0.0632 | 0.0239
